Laboratory results taken from the supplement of paper PMC10338343.
± gives the standard deviation. The list shows a part of the results, in another mix than the full data.

The sequences below were run on MIWI (PIWIL1) piRISC loaded with L1MC piRNA (30 nt) (assay: pre-steady-state target cleavage rate (min^-1); MIWI and MILI are mouse PIWI proteins and EfPiwi is from a freshwater sponge; tags in brackets are library labels; higher = faster piRNA-guided slicing of the target). Details: guide: L1MC piRNA 5'p-UAACUAAAUACUAUGCAAGCUGUAGGUCCU; auxiliary factor: 500 nM mouse GTSF1.
Description: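 Cleave-'n-Seq: a library of target RNAs (target site embedded in constant flanks, ACAGCATTCCGCGTTAGTGATATCCG... 5' flank; DNA-blocked outside the site) at 0.1 nM was incubated with 1 nM active mouse MILI or MIWI piRISC (synthetic 5'-monophosphorylated piRNA guide) with or without 500 nM mouse GTSF1 at 33 °C for 1 min to 16 h. Uncleaved targets were sequenced and normalised to non-target controls, and the pooled three trials were fitted to a burst-and-steady-state model to give the pre-steady-state cleavage rate (min^-1; k3 is constrained to at most 1e-4). Sequence is the target site only; target names encode pairing extent (gX:gY) and contiguous / 1-mismatch / 2-mismatch / bulge geometry. Fits with R² ≤ 0 are excluded.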

Sequence | pre-steady-state target cleavage rate
UCCUGGAUCAGCUUGCAUAUAUUUAGUUA | 0.0178 ± 0.0053
UCCUCCUACAGGUUGCAUAGUAUAUAGUUA | 0.58 ± 0.049
UCCUCCUAGAGCUUGGAUAGUAUUUAGUUA | 0.982 ± 0.06
UCCUCCUUCAGCUUGCAUAGUAUUUAGAAA | 0.316 ± 0.041
UCCACCUACAGCGUUGCAUAGUAUUUAGUUA | 1.03 ± 0.13
UCCUGGAUCAGCUUGCAUAGUAUUUACGUUA | 0.736 ± 0.036
UCCUGGUACAGCUUGCAUAGUUAUUAGUUA | 0.115 ± 0.018
UCCUCCUACAGCUUGCAUAGAAUUUAGAAA | 0.256 ± 0.046
UCGACCUACAGCAUGCAUACUAUUUAGUUA | 0.421 ± 0.021
UCGACCUAGUGCUUGCAUAGUAUUUAGUAA | 0.472 ± 0.034
UCCUGCUACAGCUUCGCAUAGUAUUUAGUUA | 0.737 ± 0.032
UCCACCUACAGCUUGCAUAGAUUUUAGUAA | 0.13 ± 0.03
UCCUGGUACAGCUUGGAUAGUUUUUAGUUA | 0.209 ± 0.048
UCCUGCUACAGCUUCCAUUGUAUUUAGUUA | 0.202 ± 0.024
UCCUGGUACAGCUUGCAUAGAUAUUAGUUA | 0.0103 ± 0.0046
AGGACCUACAGCUUGCUAAGUAUUUACAAA | 0.0701 ± 0.02
UCCUCCUACAGCUUGGAUAGUAUUUAGAUA | 0.372 ± 0.039
UCGACCUUGAGCUUGCAUAGUAUUUACAAA | 0.309 ± 0.05
AGCUCCUACAGCUUGCAUAGUAUUUAGAAA | 0.381 ± 0.056
UCCUGGAACAGCUUGCAUAUAUUUAGUUA | 0.0784 ± 0.011
UCCUGGAUGUCGCUGCAUAGUAUUUAGUUA | 0.00886 ± 0.0026
AGGACCUACAGCUUGCAUAGUAUUUAGUGUA | 0.543 ± 0.04
UCCUGGAAGUCCUUGCAUAGUAUUUAGUUA | 0.175 ± 0.02

Same assay, conditions: guide: L1MC piRNA 5'p-UAACUAAAUACUAUGCAAGCUGUAGGUCCU; auxiliary factor: none (no GTSF1)

Sequence | pre-steady-state target cleavage rate
UCCUCCUACAGGUUGCAUAGUAUAUAGUUA | 0.0122 ± 0.0033
UCCUCCUAGAGCUUGGAUAGUAUUUAGUUA | 0.037 ± 0.0057
UCCUCCUUCAGCUUGCAUAGUAUUUAGAAA | 0.00389 ± 0.002
UCCACCUACAGCGUUGCAUAGUAUUUAGUUA | 0.0279 ± 0.005
UCCUGGAUCAGCUUGCAUAGUAUUUACGUUA | 0.032 ± 0.0083
UCCUGGUACAGCUUGCAUAGUUAUUAGUUA | 0.018 ± 0.0051
UCCUCCUACAGCUUGCAUAGAAUUUAGAAA | 0.00309 ± 0.0023
UCGACCUACAGCAUGCAUACUAUUUAGUUA | 0.0197 ± 0.0036
UCGACCUAGUGCUUGCAUAGUAUUUAGUAA | 0.0195 ± 0.0046
UCCUGCUACAGCUUCGCAUAGUAUUUAGUUA | 0.00649 ± 0.0024
UCCUGGUACAGCUUGGAUAGUUUUUAGUUA | 0.0179 ± 0.0054
UCCUCCUACAGCUUGGAUAGUAUUUAGAUA | 0.00865 ± 0.0019
UCGACCUUGAGCUUGCAUAGUAUUUACAAA | 0.0033 ± 0.0017
AGCUCCUACAGCUUGCAUAGUAUUUAGAAA | 0.00544 ± 0.0029
UCCUGGAACAGCUUGCAUAUAUUUAGUUA | 0.0034 ± 0.0028
AGGACCUACAGCUUGCAUAGUAUUUAGUGUA | 0.0657 ± 0.012
UCCUGGAAGUCCUUGCAUAGUAUUUAGUUA | 0.0104 ± 0.0031
